Source: patent publication US20250270341A1 (Alector, published 2025)
Values belong to the binder of their own block, whether it stands above or below them.

Legend:
[1] = target: T1, Cyno CD98hc ECD Avi-His (cynomolgus macaque, UniProt P08195 105-529 (human entry)); assay: ELISA, 1-30 ug/mL
T1 construct: biotinylated on the Avi tag where captured on streptavidin; also called Cyno CD98-AVI-His; Cyno CD98hc-AVI-His
T1 chain: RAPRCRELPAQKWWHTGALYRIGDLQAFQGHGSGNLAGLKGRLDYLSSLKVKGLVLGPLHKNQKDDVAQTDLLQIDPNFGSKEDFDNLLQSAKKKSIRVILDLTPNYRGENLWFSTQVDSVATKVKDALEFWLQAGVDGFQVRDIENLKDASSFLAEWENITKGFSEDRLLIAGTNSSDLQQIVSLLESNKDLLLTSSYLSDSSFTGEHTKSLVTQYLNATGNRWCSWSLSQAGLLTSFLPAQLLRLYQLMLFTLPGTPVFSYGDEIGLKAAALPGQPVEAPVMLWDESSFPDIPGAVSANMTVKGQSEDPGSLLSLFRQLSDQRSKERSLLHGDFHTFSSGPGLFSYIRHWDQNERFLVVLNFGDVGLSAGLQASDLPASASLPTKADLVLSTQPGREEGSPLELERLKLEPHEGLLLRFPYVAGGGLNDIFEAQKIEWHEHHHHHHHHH

[2] = target: T2, cyno TfR AVI-His (cyno, UniProt H9EXL1 89-760 (rhesus entry)); assay: ELISA, 1-30 ug/mL
T2 construct: control protein

[3] = target: T3, huCD98hc ECD Avi-His (human, UniProt P08195 105-529); assay: ELISA, 1-30 ug/mL
T3 construct: biotinylated on the Avi tag where captured on streptavidin; also called Human CD98-AVI-His; Human CD98hc-AVI-His
T3 sequence: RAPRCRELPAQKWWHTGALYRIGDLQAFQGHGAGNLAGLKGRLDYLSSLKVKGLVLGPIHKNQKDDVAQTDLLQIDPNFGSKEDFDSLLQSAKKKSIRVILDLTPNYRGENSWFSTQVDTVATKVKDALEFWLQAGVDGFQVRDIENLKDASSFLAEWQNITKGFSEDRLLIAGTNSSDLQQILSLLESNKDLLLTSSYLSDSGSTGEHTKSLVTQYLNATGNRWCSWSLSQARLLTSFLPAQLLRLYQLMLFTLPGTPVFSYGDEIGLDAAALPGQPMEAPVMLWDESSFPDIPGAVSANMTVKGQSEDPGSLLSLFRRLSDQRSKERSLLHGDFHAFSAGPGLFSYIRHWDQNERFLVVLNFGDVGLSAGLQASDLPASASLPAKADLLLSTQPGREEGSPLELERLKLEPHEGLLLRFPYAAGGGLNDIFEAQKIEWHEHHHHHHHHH

[4] = target: T1, Cyno CD98hc ECD Avi-His; assay: SPR, Carterra LSA, antibody immobilized
[5] = target: T3, huCD98hc ECD Avi-His; assay: SPR, Carterra LSA, antibody immobilized

B1: CD98hc.05.166 (2+1 bispecific antibody) (bispecific antibody)
heavy 1: EVRLLESGGGLVQPGGSLRLSCAASGFTFSNYAMGWVRQAPGKGLEWVSAISGSGGSTYYADSVKGRFTTSRDDSKNALYLQMNSLRAEDTAVYYCARGGPGWYAADVWGQGTTVTVSSASTKGPSVFPLAPSSKSTSGGTAALGCLVKDYFPEPVTVSWNSGALTSGVHTFPAVLQSSGLYSLSSVVTVPSSSLGTQTYICNVNHKPSNTKVDKKV[here human IgG1 Fc with changes without letters]GGGGSGGGGSGGGGSEVQLLQSGAELVKPGASVKLSCTASGFNILDTYIHWVMQRPEQGLEWIGRIDPANGHVKYDPKFQGKATITADTSSNTAYLQLSSLTSEDTAVYYCASPFTTVVATNIYYYGLGYWGHGTSVTVSSGGSEGKSSGSGSESKSTGGSDIVMTQSHKFMSTSLGDRVSITCKASQGVFTAVAWYQQKPGQSPKLLIYSASYRYTGVPDRFTGSGSGTDFTFTISSVQAEDLAVYYCQQHYSTPWTFGGGTKLEIK
heavy 2: EVRLLESGGGLVQPGGSLRLSCAASGFTFSNYAMGWVRQAPGKGLEWVSAISGSGGSTYYADSVKGRFTTSRDDSKNALYLQMNSLRAEDTAVYYCARGGPGWYAADVWGQGTTVTVSS[here human IgG1 constant region with changes without letters]
light: DIQMTQSPSSLSASVGDRVTITCRASQSISSYLNWYQQKPGKAPKLLIYAASSLQSGVPSRFSGSGSGTDFTLTISSLQPEDFATYYCQQADLPAFAFGGGTKVEIKRTVAAPSVFIFPPSDEQLKSGTASVVCLLNNFYPREAKVQWKVDNALQSGNSQESVTEQDSKDSTYSLSSTLTLSKADYEKHKVYACEVTHQGLSSPVTKSFNRGEC
ELISA ratio to 2nd only [1]: 4
ELISA ratio to 2nd only [2]: 1
ELISA ratio to 2nd only [3]: 31
Kd [4]: 39 nM
Kd [5]: 9.1 nM

B2: CD98hc.05.168 (2+1 bispecific antibody) (bispecific antibody)
heavy 1: EVRLLESGGGLVQPGGSLRLSCAASGFTFSNYAMGWVRQAPGKGLEWVSAISGSGGSTYYADSVKGRFTTSRDDSKNALYLQMNSLRAEDTAVYYCARGGPGWYAADVWGQGTTVTVSSASTKGPSVFPLAPSSKSTSGGTAALGCLVKDYFPEPVTVSWNSGALTSGVHTFPAVLQSSGLYSLSSVVTVPSSSLGTQTYICNVNHKPSNTKVDKKV[here human IgG1 Fc with changes without letters]GGGGSGGGGSGGGGSEVQLVESGGGLVKPGGSLKLSCAASGFAFSTYDMSWVRQTPEKRLEWVAYISSGGDTTYYPDTVKGRFTISRDNAKNTLYLQMSSLKSEDSAIYYCARQDYRPYFAYWGQGTLVTVSSGGSEGKSSGSGSESKSTGGSDIVMSQSPSSLAVSVGEKVTVSCKSSQNLLYSSNQKNYLAWYQQKPGQSPKLLIYWASTRESGVPDRFTGSGSGTDFTLTISSVKAEDLAVYYCQQYSYYPPTFGGGTKLEIK
heavy 2: EVRLLESGGGLVQPGGSLRLSCAASGFTFSNYAMGWVRQAPGKGLEWVSAISGSGGSTYYADSVKGRFTTSRDDSKNALYLQMNSLRAEDTAVYYCARGGPGWYAADVWGQGTTVTVSS[here human IgG1 constant region with changes without letters]
light: B1 light
ELISA ratio to 2nd only [1]: 9
ELISA ratio to 2nd only [2]: 1
ELISA ratio to 2nd only [3]: 28
Kd [4]: 100 nM
Kd [5]: 20 nM

B4: CD98hc.05.193 (2+1 bispecific antibody) (bispecific antibody)
heavy 1: EVRLLESGGGLVQPGGSLRLSCAASGFTFSNYAMGWVRQAPGKGLEWVSAISGSGGSTYYADSVKGRFTTSRDDSKNALYLQMNSLRAEDTAVYYCARGGPGWYAADVWGQGTTVTVSSASTKGPSVFPLAPSSKSTSGGTAALGCLVKDYFPEPVTVSWNSGALTSGVHTFPAVLQSSGLYSLSSVVTVPSSSLGTQTYICNVNHKPSNTKVDKKV[here human IgG1 Fc with changes without letters]GGGGSGGGGSGGGGSEVQLVESGGGLVQPGGSLKVSCTTSGFTFSDFDMSWIRQTPEKRLEWVAYISSGGGSTYFPDTVKGRFTISRDNAKSTLYLQMSSLKSEDTAMYYCARHVGVRPWFDYWGQGTLVTVSSGGSEGKSSGSGSESKSTGGSDIVMSQSPSSLAVSVGEKVTMTCKSSQSLLYSSNQKNYLAWYQQKPGQSPKLLIYWASTRESGVPDRFTGSGSGTDFTLTISSVKAEDLALYYCQQYHYYPPTFGAGTKLEIK
heavy 2: EVRLLESGGGLVQPGGSLRLSCAASGFTFSNYAMGWVRQAPGKGLEWVSAISGSGGSTYYADSVKGRFTTSRDDSKNALYLQMNSLRAEDTAVYYCARGGPGWYAADVWGQGTTVTVSS[here human IgG1 constant region with changes without letters]
light: B1 light
ELISA ratio to 2nd only [1]: 10
ELISA ratio to 2nd only [2]: 1
ELISA ratio to 2nd only [3]: 28
Kd [4]: 22 nM
Kd [5]: 11 nM

Further lines, results first:

ELISA ratio to 2nd only [1]: 7
ELISA ratio to 2nd only [2]: 1
ELISA ratio to 2nd only [3]: 23
Kd [4]: 120 nM
Kd [5]: 42 nM
B3: CD98hc.05.207 (2+1 bispecific antibody) (bispecific antibody)
heavy 1: EVRLLESGGGLVQPGGSLRLSCAASGFTFSNYAMGWVRQAPGKGLEWVSAISGSGGSTYYADSVKGRFTTSRDDSKNALYLQMNSLRAEDTAVYYCARGGPGWYAADVWGQGTTVTVSSASTKGPSVFPLAPSSKSTSGGTAALGCLVKDYFPEPVTVSWNSGALTSGVHTFPAVLQSSGLYSLSSVVTVPSSSLGTQTYICNVNHKPSNTKVDKKV[here human IgG1 Fc with changes without letters]GGGGSGGGGSGGGGSEVQLVESGGGLVKPGGSLKISCAASGFAFSSYDMSWVRQTPEKRLEWVAYISSAGGSTYFPGTVKGRFTISRDNAKNTLYLQMRSLKSEDTAMYYCARHENGHYPFFDFWGQGTTLTVSSGGSEGKSSGSGSESKSTGGSDIVMSQSPSSLAVSVGEKVTLSCKSSQSLFYSGNQKTYLAWYQQKPGQSPKLLIYWTSTRESGVPDRFTGSGSGTDFTLTISSVKAEDLAVYFCQQYYTYPPTFGAGTKLEIK
heavy 2: EVRLLESGGGLVQPGGSLRLSCAASGFTFSNYAMGWVRQAPGKGLEWVSAISGSGGSTYYADSVKGRFTTSRDDSKNALYLQMNSLRAEDTAVYYCARGGPGWYAADVWGQGTTVTVSS[here human IgG1 constant region with changes without letters]
light: B1 light

ELISA ratio to 2nd only [1]: 6
ELISA ratio to 2nd only [2]: 1
ELISA ratio to 2nd only [3]: 25
Kd [4]: 61 nM
Kd [5]: 21 nM
B5: CD98hc.05.226 (2+1 bispecific antibody) (bispecific antibody)
heavy 1: EVRLLESGGGLVQPGGSLRLSCAASGFTFSNYAMGWVRQAPGKGLEWVSAISGSGGSTYYADSVKGRFTTSRDDSKNALYLQMNSLRAEDTAVYYCARGGPGWYAADVWGQGTTVTVSSASTKGPSVFPLAPSSKSTSGGTAALGCLVKDYFPEPVTVSWNSGALTSGVHTFPAVLQSSGLYSLSSVVTVPSSSLGTQTYICNVNHKPSNTKVDKKV[here human IgG1 Fc with changes without letters]GGGGSGGGGSGGGGSEVQLVESGGGLGKPGGSLKLSCAASGFAFSSYDMSWVRQTPEKRLDWVAYISSGGGGTYYPDTVKGRFTISRDNAKNTLYLQMSSLKSEDTAIYYCARHVGVRPWFGYWGQGTLVTVSSGGSEGKSSGSGSESKSTGGSDIVMSQSPSSLAVSVGEKITMTCKSSQSLLYSGSQKNYLAWYQQKPGQSPKLLIYWASTRESGVPDRFTGSGSGTDFTLTISSVKAEDLAVYYCQQYSYYPPTFGAGTKLEIK
heavy 2: EVRLLESGGGLVQPGGSLRLSCAASGFTFSNYAMGWVRQAPGKGLEWVSAISGSGGSTYYADSVKGRFTTSRDDSKNALYLQMNSLRAEDTAVYYCARGGPGWYAADVWGQGTTVTVSS[here human IgG1 constant region with changes without letters]
light: B1 light
